# Measured values reported in the supplement of paper PMC12217912.
# Some of the results follow. Sequences were assembled here from the parent chain. Inactive controls read about 0.05.
# B1: TEV protease; numbered along this chain (parent)
# chain: MGESLFKGPRDYNPISSSICHLTNESDGHTTSLYGIGFGPFIITNKHLFRRNNGTLVVQSLHGVFKVKDTTTLQQHLVDGRDMIIIRMPKDFPPFPQKLKFREPQREERICLVTTNFQTKSMSSMVSDTSCTFPSGDGIFWKHWIQTKDGQCGSPLVSTRDGFIVGIHSASNFTNTNNYFTSVPKNFMELLTNQEAQQWVSGWRLNADSVLWGGHKVFMVKPEEPFQPVKEATQL
# Variants of: B1
# Assay: raw area under fraction-flipped curve 0-4 h after induction (AUC4h, not background-subtracted), DNA-recorder readout of cleavage of the substrate (dimensionless); higher = more cleavage of the substrate by the protease variant
# Details: temperature: 34 °C; time window: 0-4 h after rhamnose induction
# Procedure: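 In vivo DNA recorder in E. coli TOP10(DE3) ΔrhaA at 34 °C. Each TEVp single-site mutant (parent TEVp 0) is paired with a single-site variant of the 7-mer TEVs (canonical ENLYFQ|S). The substrate sits between flexible linkers in a Bxb1-sfGFP-TEVs-SsrA fusion, so cleavage stabilises Bxb1 and speeds flipping of a recombination array, read by NGS. The value is the raw area under the fraction-flipped curve over 0-4 h after rhamnose induction (AUC4h), with ≥20 reads per time point. It is not background-subtracted; inactive controls average about 0.047.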
# 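Note: Bxb1 expression induced with 0.2% (w/v) L-rhamnose at OD600 near 0.5, cultures sampled hourly, flipped fraction per protease–substrate barcode pair counted by paired-end Illumina sequencing.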
Variant,area with substrate ENLYFDS,area with substrate ENLYFIS,area with substrate ENLYFKS,area with substrate ENLYFLS,area with substrate ENLYFMS,area with substrate ENLYFNS,area with substrate ENLYFPS,area with substrate ENLYFSS,area with substrate ENLYFTS,area with substrate ENLYFES,area with substrate ENLYFFS,area with substrate ENLYFRS,area with substrate ENLYFWS,area with substrate ENLYFYS,area with substrate ENLYFGS,area with substrate ENLYFHS,area with substrate ENLYFVS
MGESLFKGPRDYNPISSSICHLTNESDGHTTSLYGIGFGPFIITNKHLFRRNNGTLVVQSLHGVFKVKDTTTLQQHLVDGRDMIIIRMPKDFPPFPQKLKFREPQREERICLVTTNFQTKSMSSMVSDTSCTFPSGDGIFWKHWIQTKDGQCGSPLVSTRDGFIVGIHSASNFTNTNNYFTSVPKNFMELLTNQEAQQWNSGWRLNADSVLWGGHKVFMVKPEEPFQPVKEATQL [V200N],0.0554,0.0554,0.0665,0.0525,0.0554,0.0581,0.078,0.051,0.051,,,,,,,,
MGESLFKGPRDYNPISSSICHLTNESDGHTTSLYGIGFGPFIITNKHLFRRNNGTLVVQSLHGVFKVKDTTTLQQHLVDGRDMIIIRMPKDFPPFPQKLKFREPQREERICLVTTNFQTKSMSSMVSDTSCTFPSGDGIFWKHWIQTKDGQCGSPLVSTRDGFIVGIHSASNFTNTNNYFTSVPKNFMELLTNQEAQQWVSGWRLNADSVLWGGHKVFCVKPEEPFQPVKEATQL [M219C],0.0534,0.0678,0.0573,0.0634,0.092,,0.0657,,0.0529,0.0663,0.0716,0.0651,0.0528,0.0537,,,
MGESLFKGPRDYNPISSSICHLTNESDGHTTSLYGIGFGPFIITNKHLFRRNNGTLVVQSLHGVFKVKDTTTLQQHLVDGRDMIIIRMPKDFPPFPQKLKFREPQREERICLVTTNFQTKSMSSMVSDTSCTFPSGDGIFWKHWIQTKDGQCGSPLVSTRDGFIVGIHSASNFTNTNNYFTSVPKNFMELLTNQEAQQWVSGWRLNADSVLWGGHKVFMVKPEEPFQPVKHATQL [E231H],0.053,0.0632,0.0632,,0.067,0.0931,,0.0552,0.0662,0.0588,,0.0671,,0.0394,0.0672,0.0583,
MGESLFKGPRDYNPISSSICHWTNESDGHTTSLYGIGFGPFIITNKHLFRRNNGTLVVQSLHGVFKVKDTTTLQQHLVDGRDMIIIRMPKDFPPFPQKLKFREPQREERICLVTTNFQTKSMSSMVSDTSCTFPSGDGIFWKHWIQTKDGQCGSPLVSTRDGFIVGIHSASNFTNTNNYFTSVPKNFMELLTNQEAQQWVSGWRLNADSVLWGGHKVFMVKPEEPFQPVKEATQL [L22W],,0.0412,,0.054,0.0124,0.0479,0.0432,0.0474,0.0521,0.0456,0.052,0.0278,0.0397,0.0439,,0.0499,0.0394
MGESLFKGPRDYNPISSSICHLTNESDGHTTSLYGIGFGPFIITNKHLFRRNNGTLVVQSLHGVFKVKDTTTLQQHLVDGRDMIIIRMPKDHPPFPQKLKFREPQREERICLVTTNFQTKSMSSMVSDTSCTFPSGDGIFWKHWIQTKDGQCGSPLVSTRDGFIVGIHSASNFTNTNNYFTSVPKNFMELLTNQEAQQWVSGWRLNADSVLWGGHKVFMVKPEEPFQPVKEATQL [F92H],,0.0541,,,,,0.0758,,,0.0488,,,0.0483,,,0.0619,0.0383
MGESLFKGPRDYNPISSSICHLTNESDGHTTSLYGIGFGPFIITNKHLFRRNNGTLVVQSLHGVFKVKDTTTLQQHLVDGRDMIIIRMPKDFPPFPQKLKFREPQREERICLVTTNFQTKSQSSMVSDTSCTFPSGDGIFWKHWIQTKDGQCGSPLVSTRDGFIVGIHSASNFTNTNNYFTSVPKNFMELLTNQEAQQWVSGWRLNADSVLWGGHKVFMVKPEEPFQPVKEATQL [M122Q],,0.0653,0.0675,,0.0632,,0.0774,,,0.0519,,0.0459,0.0646,0.0638,0.0814,0.0566,0.0482
MGESLFKGPRDYNPISSSICHLTNESDGHTTSLYGIGFGPFIITNKHLFRRNNGTLVVQSLHGVFKVKDTTTLQQHLVDGRDMIIIRMPKDFPPFPQKLKFREPQREERICLVTTNFQTKSMKSMVSDTSCTFPSGDGIFWKHWIQTKDGQCGSPLVSTRDGFIVGIHSASNFTNTNNYFTSVPKNFMELLTNQEAQQWVSGWRLNADSVLWGGHKVFMVKPEEPFQPVKEATQL [S123K],,0.0482,0.0645,,0.0644,,0.0533,,0.0563,0.0639,0.0572,0.0501,,0.0612,,0.0603,
MGESLFKGPRDYNPISSSICHLTNESDGHTTSLYGIGFGPFIITNKHLFRRNNGTLVVQSLHGVFKVKDTTTLQQHLVDGRDMIIIRMPKDFPPFPQKLKFREPQREERICLVTTNFQTKSMSSMVSDTSCTFPSGDGICWKHWIQTKDGQCGSPLVSTRDGFIVGIHSASNFTNTNNYFTSVPKNFMELLTNQEAQQWVSGWRLNADSVLWGGHKVFMVKPEEPFQPVKEATQL [F140C],,0.0535,0.0517,0.0616,0.0559,0.0731,0.0625,0.0681,0.0645,0.0545,0.0621,0.0729,0.0492,0.0687,,0.0586,0.0641
MGESLFKGPRDYNPISSSICHLTNESDGHTTSLYGIGFGPFIITNKHLFRRNNGTLVVQSLHGVFKVKDTTTLQQHLVDGRDMIIIRMPKDFPPFPQKLKFREPQREERICLVTTNFQTKSMSSMVSDTSCTFPSGDGIFWKHWIQTKDGQCGSPLVSTRDGFIVGIHFASNFTNTNNYFTSVPKNFMELLTNQEAQQWVSGWRLNADSVLWGGHKVFMVKPEEPFQPVKEATQL [S169F],,0.0584,,,0.0585,0.058,0.04,,0.0753,0.046,0.0586,0.0673,,,,0.0527,
MGESLFKGPRDYNPISSSICHLTNESDGHTTSLYGIGFGPFIITNKHLFRRNNGTLVVQSLHGVFKVKDTTTLQQHLVDGRDMIIIRMPKDFPPFPQKLKFREPQREERICLVTTNFQTKSMSSMVSDTSCTFPSGDGIFWKHWIQTKDGQCGSPLVSTRDGFIVGIHSASNFTNTNNYFTSVPKNFMELLTNQEAQQWVSGWRLNADSVLWGGHKVFMVKPEEPFQPVKTATQL [E231T],,0.0495,0.059,,0.0732,,0.0549,0.0722,0.0486,0.07,0.0782,0.0643,0.0646,0.0657,,0.065,0.0568
MMESLFKGPRDYNPISSSICHLTNESDGHTTSLYGIGFGPFIITNKHLFRRNNGTLVVQSLHGVFKVKDTTTLQQHLVDGRDMIIIRMPKDFPPFPQKLKFREPQREERICLVTTNFQTKSMSSMVSDTSCTFPSGDGIFWKHWIQTKDGQCGSPLVSTRDGFIVGIHSASNFTNTNNYFTSVPKNFMELLTNQEAQQWVSGWRLNADSVLWGGHKVFMVKPEEPFQPVKEATQL [G2M],,0.0401,0.0212,,0.0705,,0.0628,,0.0526,,0.0649,0.0641,0.0651,,0.064,,0.0885
MGESLFKGPRDYNPISSSICHLTNESDGHTTSLYGIGFGPFIITNKHLFRRNNGTLVVQSLHYVFKVKDTTTLQQHLVDGRDMIIIRMPKDFPPFPQKLKFREPQREERICLVTTNFQTKSMSSMVSDTSCTFPSGDGIFWKHWIQTKDGQCGSPLVSTRDGFIVGIHSASNFTNTNNYFTSVPKNFMELLTNQEAQQWVSGWRLNADSVLWGGHKVFMVKPEEPFQPVKEATQL [G63Y],,0.0546,,0.054,0.0484,,0.0522,0.0866,0.0556,,0.0611,0.0655,0.0544,0.0454,0.0516,0.0551,0.0697
MGESLFKGPRDYNPISSSICHLTNESDGHTTSLYGIGFGPFIITNKHLFRRNNGTLVVQSLHGVFKVKDTTTLQQHLVDGRDMIIIRMPKDFPPFPQKLKFRAPQREERICLVTTNFQTKSMSSMVSDTSCTFPSGDGIFWKHWIQTKDGQCGSPLVSTRDGFIVGIHSASNFTNTNNYFTSVPKNFMELLTNQEAQQWVSGWRLNADSVLWGGHKVFMVKPEEPFQPVKEATQL [E103A],,0.0587,,0.0646,,,0.0437,,0.0512,,0.0525,,0.0502,0.037,,0.0556,
MGESLFKGPRDYNPISSSICHLTNESDGHTTSLYGIGFGPFIITNKHLFRRNNGTLVVQSLHGVFKVKDTTTLQQHLVDGRDMIIIRMPKDFPPFPQKLKFREPQREERICLVTTNFQTKSMSSMVSDTSCTFPSGDGIFWKHWFQTKDGQCGSPLVSTRDGFIVGIHSASNFTNTNNYFTSVPKNFMELLTNQEAQQWVSGWRLNADSVLWGGHKVFMVKPEEPFQPVKEATQL [I145F],,0.0642,0.0599,,0.073,,0.0555,,,,0.075,,,,0.0733,,0.0589
